Among all 310,000 compounds or so, about 14,000 (4.5%) showed an effect of 50% or more. The effect is printed as a negative number. The list shows a part of the results.
The compounds below were run against human ether-à-go-go-related gene (hERG) potassium channel (human, UniProt Q12809) (assay: primary screen, population patch clamp on CHO cells stably expressing hERG).
human ether-à-go-go-related gene (hERG) potassium channel, sequence (Q12809 whole entry, looked up): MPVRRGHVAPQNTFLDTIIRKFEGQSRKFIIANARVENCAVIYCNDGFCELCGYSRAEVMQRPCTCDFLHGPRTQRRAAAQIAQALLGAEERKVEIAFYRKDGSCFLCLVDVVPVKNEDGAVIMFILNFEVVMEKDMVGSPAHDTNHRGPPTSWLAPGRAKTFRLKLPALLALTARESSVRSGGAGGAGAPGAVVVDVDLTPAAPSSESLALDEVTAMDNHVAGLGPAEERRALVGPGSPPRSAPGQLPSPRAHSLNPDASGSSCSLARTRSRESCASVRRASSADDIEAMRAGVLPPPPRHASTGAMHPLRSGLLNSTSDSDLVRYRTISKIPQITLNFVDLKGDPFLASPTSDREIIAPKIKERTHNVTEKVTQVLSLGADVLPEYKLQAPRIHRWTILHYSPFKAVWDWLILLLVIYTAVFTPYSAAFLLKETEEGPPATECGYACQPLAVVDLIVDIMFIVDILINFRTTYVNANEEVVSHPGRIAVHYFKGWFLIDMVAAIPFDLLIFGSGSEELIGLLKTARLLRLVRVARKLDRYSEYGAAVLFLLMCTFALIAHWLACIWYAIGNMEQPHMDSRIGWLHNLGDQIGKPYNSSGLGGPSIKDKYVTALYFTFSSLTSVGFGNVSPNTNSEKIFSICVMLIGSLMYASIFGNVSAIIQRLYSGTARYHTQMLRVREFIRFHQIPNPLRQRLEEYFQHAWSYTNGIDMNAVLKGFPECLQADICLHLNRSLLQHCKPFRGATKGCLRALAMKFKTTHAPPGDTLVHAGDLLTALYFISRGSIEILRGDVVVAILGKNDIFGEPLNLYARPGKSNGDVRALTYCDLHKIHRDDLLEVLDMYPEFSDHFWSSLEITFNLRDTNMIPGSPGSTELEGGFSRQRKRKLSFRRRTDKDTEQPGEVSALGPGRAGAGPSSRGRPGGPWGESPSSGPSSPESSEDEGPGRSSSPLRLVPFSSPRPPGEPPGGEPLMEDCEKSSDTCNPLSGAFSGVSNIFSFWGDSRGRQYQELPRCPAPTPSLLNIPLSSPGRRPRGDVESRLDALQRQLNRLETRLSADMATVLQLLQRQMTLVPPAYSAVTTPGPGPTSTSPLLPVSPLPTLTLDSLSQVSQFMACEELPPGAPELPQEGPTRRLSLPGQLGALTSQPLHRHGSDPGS
For `O=C(CN1C2=NCCCN2c2ccccc21)c1cccs1`, the “hERG current change (%, negative = inhibition) at 10uM” value was -18.4%.
`CC(C)C12CN3CC(C(C)C)(CN(C1)C3c1ccccc1O)C2=O` (stereo not shown) was tested, and the “hERG current change (%, negative = inhibition) at 10uM” value was -0.361%.
With `COc1ccccc1N=CC1=C(O)CC(c2ccccc2)CC1=O` (stereo not shown) the “hERG current change (%, negative = inhibition) at 10uM” value was 14.1%.
With `CCCc1n(CC(O)COCc2ccccc2)c2ccccc2[n+]1C.[I-]` (stereo not shown) the “hERG current change (%, negative = inhibition) at 10uM” value was 3.92%.
For `Oc1[nH]c2ccc(Br)cc2c1N=Nc1ccc(C(F)(F)F)cn1`, the “hERG current change (%, negative = inhibition) at 10uM” value was 13.6%.
In the case of `O=C(Cn1cc[n+](CC(=O)c2ccc(Cl)cc2Cl)c1)c1ccc(Cl)cc1Cl.[Br-]`, the “hERG current change (%, negative = inhibition) at 10uM” value is reported as -61.5%.
For `COc1ccc(CNc2oc(-c3ccccc3)nc2C#N)cc1`, the “hERG current change (%, negative = inhibition) at 10uM” value was -3.26%.
For `CN(C)CCCNc1cn[nH]c(=O)c1Cl`, the “hERG current change (%, negative = inhibition) at 10uM” value was -4.97%.
With `COc1cccc(C(=O)N2CCN(S(C)(=O)=O)CC2)c1` the “hERG current change (%, negative = inhibition) at 10uM” value was 9.24%.
For `CCN(C(=O)COC(=O)c1oc2ccccc2c1C)c1c(N)n(Cc2ccccc2)c(=O)[nH]c1=O`, the “hERG current change (%, negative = inhibition) at 10uM” value was 15.7%.
In the case of `O=C(NCC1CCCCC1)c1cccnc1Cl`, the “hERG current change (%, negative = inhibition) at 10uM” value is reported as 21.9%.
For `O=C(COC(=O)CCc1c[nH]c2ccccc12)NCc1ccccc1`, the “hERG current change (%, negative = inhibition) at 10uM” value was 4.6%.
For `COc1cc(-c2cc(C(=O)O)c3cc4c(cc3n2)OCCO4)cc(OC)c1OC`, the “hERG current change (%, negative = inhibition) at 10uM” value was -32.5%.
With `O=C(Nc1ccc2c(c1)OCO2)c1ccccc1SCC(=O)N1CCCC1` the “hERG current change (%, negative = inhibition) at 10uM” value was 5.23%.
For `O=C(O)c1cc(Cl)nc2ccccc12`, the “hERG current change (%, negative = inhibition) at 10uM” value was 16.1%.
In the case of `CCOC(=O)C(NC(=O)c1ccccc1)(Nc1cccc(C)n1)C(F)(F)F` (stereo not shown), the “hERG current change (%, negative = inhibition) at 10uM” value is reported as 0.965%.
For `CCCc1cc(=O)[nH]c2nnc(SCC(=O)Nc3nnc(SCC)s3)n12`, the “hERG current change (%, negative = inhibition) at 10uM” value was 10.2%.
In the case of `Cc1cc(NC(=O)c2ccccc2[N+](=O)[O-])ccc1Br`, the “hERG current change (%, negative = inhibition) at 10uM” value is reported as -1.44%.
For `O=C(CN1CCN(c2ccccn2)CC1)Nc1ccc(OC(F)(F)F)cc1`, the “hERG current change (%, negative = inhibition) at 10uM” value was -29.9%.
`O=C(Nc1ccncc1)c1ccc2ccccc2c1` was tested, and the “hERG current change (%, negative = inhibition) at 10uM” value was -7.01%.
With `N#CN=C1CCCCCN1CC(N)=O` the “hERG current change (%, negative = inhibition) at 10uM” value was -2.75%.
In the case of `COc1ccccc1C(=O)Nc1cccc(S(=O)(=O)N2CCCC2)c1`, the “hERG current change (%, negative = inhibition) at 10uM” value is reported as 14.7%.
In the case of `CCOC(=O)CSc1nnc(CNC(=O)c2ccco2)n1-c1ccc(F)cc1`, the “hERG current change (%, negative = inhibition) at 10uM” value is reported as -12.2%.
With `Cc1cccc(C)c1NC(=O)CN(C1CCCCC1)S(C)(=O)=O` the “hERG current change (%, negative = inhibition) at 10uM” value was 15.6%.
With `Cc1ccc(C(=O)O)cc1NC(=S)NC(=O)c1ccc(COc2ccccc2)cc1` the “hERG current change (%, negative = inhibition) at 10uM” value was 14%.
In the case of `CCOC(=O)C1CCCN(C(=O)c2ccc3nc(-c4cccc(OC)c4)oc3c2)C1` (stereo not shown), the “hERG current change (%, negative = inhibition) at 10uM” value is reported as -28.6%.
For `O=C(CSc1nnc(-c2ccco2)o1)NC1CC2CCC1C2` (stereo not shown), the “hERG current change (%, negative = inhibition) at 10uM” value was -2.05%.
With `COC(=O)c1ccc(CSc2nc(-c3ccccc3)cs2)o1` the “hERG current change (%, negative = inhibition) at 10uM” value was 15.2%.
In the case of `CCOc1ccccc1CNc1ccc(N2CCOCC2)c(C(=O)O)c1`, the “hERG current change (%, negative = inhibition) at 10uM” value is reported as -22.8%.
`CC1CN(CC(=O)NC(C)c2ccccc2)CC(C)O1` (stereo not shown) was tested, and the “hERG current change (%, negative = inhibition) at 10uM” value was 9.23%.
With `O=C(Nc1cc(S(=O)(=O)N2CCOCC2)ccc1Cl)c1cc(=O)c2ccccc2o1` the “hERG current change (%, negative = inhibition) at 10uM” value was 8.76%.
`Cc1onc(-c2ccc(Cl)cc2Cl)c1C(=O)/C=C/N(C)C` was tested, and the “hERG current change (%, negative = inhibition) at 10uM” value was 5.11%.
For `Cc1cccc(CC(=O)NCCn2c(C)cc3ccccc32)c1`, the “hERG current change (%, negative = inhibition) at 10uM” value was -7.64%.
In the case of `Cc1cc2ccccn2c1C(=O)c1cccc(S(=O)(=O)N2CCOCC2)c1`, the “hERG current change (%, negative = inhibition) at 10uM” value is reported as -30.7%.
With `Cc1ccc(NC(=S)NNC(=O)c2c(Cl)c(C)nn2C)cc1` the “hERG current change (%, negative = inhibition) at 10uM” value was 23.4%.
`CC(=O)Nc1ccc(NC(=O)C(C)OC(=O)C2(c3ccc(F)cc3)CCCC2)cc1` (stereo not shown) was tested, and the “hERG current change (%, negative = inhibition) at 10uM” value was 2.48%.
`O=C1CC(=O)N(CCc2ccccc2)C(=O)N1CCc1ccccc1` was tested, and the “hERG current change (%, negative = inhibition) at 10uM” value was 6.19%.
In the case of `CCOc1cc(/C=N/N2CCOCC2)ccc1OCc1ccc(C(=O)OC)o1`, the “hERG current change (%, negative = inhibition) at 10uM” value is reported as 0.999%.
With `CCCCC(=O)Nc1cccc(-c2nc3ncccc3o2)c1` the “hERG current change (%, negative = inhibition) at 10uM” value was -44.6%.
In the case of `O=C(/C=C/c1ccccc1)Nc1cc(S(=O)(=O)N2CCOCC2)ccc1N1CCCC1`, the “hERG current change (%, negative = inhibition) at 10uM” value is reported as -1.04%.
With `COc1cccc(NC(=S)NCc2ccco2)c1` the “hERG current change (%, negative = inhibition) at 10uM” value was -5.9%.
`NC(=S)N(c1ccccc1)c1ccccc1` was tested, and the “hERG current change (%, negative = inhibition) at 10uM” value was 11.9%.
`C[Si](C)(C)n1ccnc1` was tested, and the “hERG current change (%, negative = inhibition) at 10uM” value was 27.9%.
With `CCCc1nc(N)c(C#N)c(N)c1C#N` the “hERG current change (%, negative = inhibition) at 10uM” value was 8.77%.
With `O=C(/C=C/c1cccnc1)c1ccc(O)cc1` the “hERG current change (%, negative = inhibition) at 10uM” value was -15.4%.
In the case of `COC(=O)COc1ccc2cc(-c3ccccc3)c(=O)oc2c1`, the “hERG current change (%, negative = inhibition) at 10uM” value is reported as 5.21%.
In the case of `Cn1c(N2CCOCC2)c(C#N)c2ccccc21`, the “hERG current change (%, negative = inhibition) at 10uM” value is reported as -3.19%.
For `O=C(NC1CCCCC1)C(c1ccc2ncccc2c1)N(Cc1ccc2c(c1)OCO2)C(=O)c1ccc2c(c1)OCCO2` (stereo not shown), the “hERG current change (%, negative = inhibition) at 10uM” value was -12.5%.
For `NC(=O)NC(=O)C(c1ccccc1)N1CCN(S(=O)(=O)c2ccc(Br)s2)CC1` (stereo not shown), the “hERG current change (%, negative = inhibition) at 10uM” value was -52.2%.
For `CCOc1ccc(N(CC(=O)Nc2ccccc2Cl)S(C)(=O)=O)cc1`, the “hERG current change (%, negative = inhibition) at 10uM” value was 9.72%.
In the case of `CCn1c(CNc2ccc(F)cc2)nnc1SCC(=O)N1CCCc2ccccc21`, the “hERG current change (%, negative = inhibition) at 10uM” value is reported as -41.6%.
`O=C(Nc1nnc(-c2cccs2)s1)c1cccc(F)c1` was tested, and the “hERG current change (%, negative = inhibition) at 10uM” value was 22%.
`COc1ccc(C(=O)Nc2ccc(N3CCN(C(=O)C(C)C)CC3)cc2)cc1[N+](=O)[O-]` was tested, and the “hERG current change (%, negative = inhibition) at 10uM” value was 19.8%.
In the case of `O=C(c1ccc(F)cc1Cl)N1CCN(S(=O)(=O)c2cccs2)CC1`, the “hERG current change (%, negative = inhibition) at 10uM” value is reported as -2.3%.
In the case of `CN(c1ccc(OCC(=O)Nc2ccc3[nH]c(=O)[nH]c3c2)cc1)S(=O)(=O)c1ccc(Cl)cc1`, the “hERG current change (%, negative = inhibition) at 10uM” value is reported as 3.97%.
In the case of `CSCCC(NS(=O)(=O)c1ccc(Cl)cc1)C(=O)OCC(=O)N(C(C)C)C(C)C` (stereo not shown), the “hERG current change (%, negative = inhibition) at 10uM” value is reported as -11.2%.
In the case of `CCOc1ccc(S(=O)(=O)N2CCCCC2)cc1NC(=O)CC1OC(=O)c2ccccc21` (stereo not shown), the “hERG current change (%, negative = inhibition) at 10uM” value is reported as -31.3%.
`O=C(Cc1ccc(NS(=O)(=O)c2cccc(C(F)(F)F)c2)cc1)NCCN1CCOCC1` was tested, and the “hERG current change (%, negative = inhibition) at 10uM” value was -11.1%.

From PMC4336329 (PLoS ONE, 2015)
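Also: peak tail current of the secondary pulse compared with the same well before compound.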
